Sequences with one replicate were seen in a single cluster, so their values are uncertain.
System: ATP
Assay: switch fluorescence ratio, 500 uM ATP over buffer (Cy3 cluster intensity, sum of 5 cycles each) (fold (ratio)); higher = stronger signal-on switching upon ATP binding; sequences stand for … in TCGTCGGCAGCGTCAGATGTGTATAAGAGACAGTTTTTTTTTTTTTTTTTTTTTTTTT…TC
Details: aptamer strand: ATP DNA aptamer (quencher-CACCTGGGGGAGTATTGCGGAGGAAGG + anchor), 100 nM annealed; ATP concentration: 500 uM; one replicate
How it was run: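 After annealing to 100 nM quencher-labelled ATP aptamer, Cy3-labelled switching-strand clusters on a modified Illumina MiSeq flow-cell were imaged in selection buffer. A second image followed after 15 min with 500 uM ATP at 22 °C, and five such buffer/ATP cycles were done, each separated by NaOH stripping and re-annealing. The fluorescence ratio, averaged per switch-domain sequence, is summed target-cycle over summed buffer-cycle Cy3 intensity per cluster, with clusters outside 100-1000 RFU excluded.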
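Further: ATP exposure 15 min at 22 °C before imaging.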

Row | Sequence | switch fluorescence ratio
1 | TATATGTTTG | 1.11
2 | TAAAAGCGCA | 0.968
3 | ATGAGATCTC | 0.964
4 | ACAAGAAGAC | 1.1
5 | GGGATCACAG | 1
6 | AATGGCGGGG | 0.988
7 | ACTATATTTC | 1.11
8 | CAAATCGGTA | 0.951
9 | TTTCCGAGTG | 0.982
10 | ATTTGACTAG | 0.983
11 | AGGTCGTCGC | 1.12
12 | GAAGGGAAAA | 0.993
13 | CGGTAAACAA | 0.984
14 | ACTGATTAAC | 1.06
15 | CCGAGCGAAG | 2.75
16 | GCTTTAACGC | 1.07
17 | GTAGACCGCA | 1.17
18 | TGGGAACGTA | 1
19 | ATTTATGGC | 1.04
20 | CTAGTCGT | 0.974
21 | AAAAAGAGAT | 0.978
22 | GGTATGGTA | 0.999
23 | TACCAACGT | 1.4
24 | CTTATACTTC | 1.04
25 | AGCTCGTAGC | 1.05
26 | ACACTGTTG | 0.976

Row | Sequence | switch fluorescence ratio
27 | CGATTTAGG | 1.01
28 | ATTCCACTCC | 1.19
29 | ACTGTCGTAT | 1.02
30 | TGTAGGTTCG | 1.01
31 | CCACTGTCTG | 1.03
32 | TTATGTTGCT | 0.98
33 | TGACCCAAGT | 1
34 | TGAAAGGAA | 1.04
35 | CTAGATACTA | 0.98
36 | TAAAAACG | 1.33
37 | CCAGCAACAG | 3.28
38 | AGCATGGCGC | 1.02
39 | GCTCTGTCTG | 0.987
40 | TACATAGTCT | 1.05
41 | ATATAGGCTT | 1
42 | TAACAGCTA | 1.01
43 | TGAGTCATCA | 1.02
44 | CCCGTTGAGG | 0.993
45 | ACTGAGAGTA | 1.03
46 | GGCCTAAA | 0.979
47 | GTCCCGGTTG | 1.08
48 | TATGGGGACC | 0.996
49 | GGGTTCCGAG | 1.06
50 | TGAAGATATG | 1
51 | AAGTTTCATA | 0.949
52 | GACGTTGATA | 1.03

Row | Sequence | switch fluorescence ratio
53 | ATGAGACTGG | 1.05
54 | AGCACTCCTG | 1.05
55 | TTTCTATCCG | 1.01
56 | TGGGAAGGT | 0.961
57 | CCAGCACGGG | 1.09
58 | CCAAATTATT | 0.931
59 | TCACGACACT | 1.74
60 | GAGCTTTGTG | 0.979
61 | GTCTTTTATT | 1.01
62 | AGTGGGAAC | 1.01
63 | TTACCCCAAA | 1.01
64 | CGTGGTTCC | 1.01
65 | ATTTAAAGTT | 1.02
66 | CCCTTGTTCG | 0.974
67 | ATTCGGATCC | 3.37
68 | CGTATGTATC | 0.952
69 | CTTGAGTAC | 0.983
70 | AGTTAGTACC | 0.975
71 | ACCACTGGGG | 1.03
72 | AGGGCCAAGG | 0.98
73 | CCGAGTGTAG | 1.06
74 | TATAGTCGC | 1.04
75 | CTTCGGCGG | 0.988
76 | CATTGTGCTT | 1.02
77 | GCACGTAGCA | 1.05
78 | TCATGCAGTT | 0.989

Row | Sequence | switch fluorescence ratio
79 | CAGGGTCCCG | 1.05
80 | TTTCCGGGCA | 1.49
81 | CCCCGAATG | 1.42
82 | CGGAGGTGG | 1.42
83 | AAAGAGAAGG | 1.03
84 | ATATAGCGTA | 1.04
85 | CGACATTCAG | 1.01
86 | CTTTTGGCGC | 1.04
87 | GCAGCATGCT | 1.06
88 | TCGCTGCGTC | 0.953
89 | TCTTGACGGT | 0.99
90 | GAGGCATCAG | 1.02
91 | TTTAGACTAA | 0.978
92 | CGGGTCCACG | 1
93 | AAAGGACTCT | 1.03
94 | CGTAGGCTCA | 1.01
95 | TTTGTACGCC | 1.03
96 | CCTAAATCGT | 1.02
97 | GCGGAATTG | 1.02
98 | TGCGGCGTTT | 0.982
99 | GTTGCCTCTG | 1.06
100 | GCCGGATGA | 1
101 | AGTGCAACCA | 0.988
102 | GTGTGTGTAG | 0.995
103 | ATGAGCATAG | 1.06
104 | AGGCATCCGT | 0.977

Row | Sequence | switch fluorescence ratio
105 | GTGCCCGGCT | 0.992
106 | ACCGGGCTAA | 1.07
107 | GCATATTGC | 1.11
108 | ACGATCTGGA | 0.947
109 | CGATCTATTT | 1
110 | GCTCGTCTAC | 1.04
111 | GGCTACGTGG | 0.951
112 | TAGTCTTTCC | 1.12
113 | CGTATGGTCC | 1.03
114 | ATTAGGTTAA | 1.02
115 | ATTTTTGCCT | 1.01
116 | TGTACGTTAG | 1.02
117 | TGTCCGTATA | 1.1
118 | AAAACACAG | 1.07
119 | TCGAGTCCGG | 1.03
120 | TGTTATTACA | 0.956
121 | CGAATGCCCA | 1.01
122 | GCATGTTGAT | 0.998
123 | GCGTGTTCAT | 0.988
124 | AATGTTACTA | 1.03
125 | ATGAGCGCTG | 1
126 | AGTTCTAGAG | 1.01
127 | TATAAGCGCG | 1.06
128 | CATTATAGTT | 0.971
129 | AGAAACTGTG | 1.03
130 | TGGACACGTT | 0.971

Row | Sequence | switch fluorescence ratio
131 | TATCAATGAG | 0.916
132 | CTGGTGACTT | 1
133 | TAATGCTTAG | 1.02
134 | GCCGCTTGCG | 0.982
135 | TCAGTGTCGG | 0.988
136 | GAACCGAGGC | 0.982
137 | TTCATAGCTA | 0.995
138 | TGCACAAGGC | 1.1
139 | CCGTCGTTGT | 0.996
140 | TTGATGGCTT | 0.993
141 | TGAATGGTTA | 1.02
142 | ATCAGCGGGC | 1.08
143 | GCGCAGCGAC | 1.15
144 | ACCCAGCAC | 1.14
145 | TCGATGTTCC | 1.03
146 | CGTTAGCAGG | 1.05
147 | GTGGTATCTA | 1
148 | CTCATGAGCT | 0.943
149 | GTCGCACATG | 0.946
150 | TCCCATGGTC | 1.05
151 | TAAGAACAAG | 0.985
152 | CACCAGGTCG | 2.01
153 | CCATTGCGAT | 4.79
154 | CGCAACAGAG | 1.2
155 | GTGTAA | 0.943
156 | AGGTTGCAGG | 1.05

Row | Sequence | switch fluorescence ratio
157 | CGAAGTCCCG | 0.984
158 | TATTAACGAA | 1.02
159 | TGAATTTGCC | 0.99
160 | CCCGGTTAGC | 1.05
161 | TTAGGCACGA | 1.02
162 | TTCAGGTAT | 0.966
163 | GCGGGAACTT | 1.04
164 | TTGACTTCCT | 1.57
165 | GAGATTCGAG | 0.951
166 | CAGCACGGCA | 1.1
167 | CGAGGTGTGG | 1.04
168 | CTTCAACTCT | 1.24
169 | CGTAATCTTT | 1.04
170 | TCAACGTCGC | 1.12
171 | ACTCCGGTAA | 1.19
172 | CAATTGATAA | 1.01
173 | TTTGAATAGC | 1.02
174 | GCTCCTCGA | 1.88
175 | TGAGGCTAA | 1.06
176 | AAACTGAAAG | 1.03
177 | AAAAATCTAT | 1.03
178 | CTATGACGGG | 0.99
179 | CCTTGAATTT | 0.99
180 | ATCGTCGGTC | 0.938
181 | GACTACAAAT | 1.06
182 | CTATCCGTGG | 0.997

Row | Sequence | switch fluorescence ratio
183 | ATAGGTATAT | 1.03
184 | CAGCGAAGAA | 0.988
185 | CGTCTCATTT | 0.949
186 | AATGACTACT | 0.977
187 | CGCGGGTGCG | 0.998
188 | TTTCACCTAC | 1.33
189 | GTGTCTTGTG | 1.02
190 | CGTTGCACCC | 1.03
191 | TCGAAAGTCG | 0.974
192 | ACGCGTACGT | 1.04
193 | TATATGTCCC | 1
194 | TCGCCAGGCA | 1.01
195 | GACCGCGTTT | 1.03
196 | GCCAGAGCGG | 1.07
197 | TGAGGGAAGG | 0.984
198 | TCCGCTGCCG | 1.19
199 | AGGTGGGGGT | 0.99
200 | GGGGTCCAGT | 0.958
201 | CTAGTGCCCA | 1.06

Reference: the supplement of paper PMC10126150
